Measurements published in PubChem BioAssay AID1030 (National Center for Advancing Translational Sciences (NCATS), 2008).
Out of some 220,000 compounds screened, about 16,000 (7.3%) were called active. The inconclusive results got no clear call from the source; some entries with a clear call stand among them for comparison. Calls follow the shape of the dose curve; as a rule, active = well fitted inhibition curve with a large enough effect (not every such curve was filed as active); inconclusive = small, poorly fitted or top-dose-only effect, or another doubt; inactive = no such curve, though single readings can be large or run the other way. Potencies of inconclusive entries are doubtful fits and often do not repeat.

Molecular target: Aldehyde dehydrogenase 1A1 (Homo sapiens) (UniProt P00352)
Test: qHTS Assay for Inhibitors of Aldehyde Dehydrogenase 1 (ALDH1A1);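 as to activity, negative = inhibition: plate controls were no enzyme wells and a reference inhibitor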
Settings: Purified ALDH1A1, NADH fluorescence, propionaldehyde substrate; series mostly up to 75.3 µM
Potency is read from the fitted curve at half-maximal effect; tags tell the direction and shape of the fitted curve.

Chain of UniProt P00352 (P00352 whole entry, looked up): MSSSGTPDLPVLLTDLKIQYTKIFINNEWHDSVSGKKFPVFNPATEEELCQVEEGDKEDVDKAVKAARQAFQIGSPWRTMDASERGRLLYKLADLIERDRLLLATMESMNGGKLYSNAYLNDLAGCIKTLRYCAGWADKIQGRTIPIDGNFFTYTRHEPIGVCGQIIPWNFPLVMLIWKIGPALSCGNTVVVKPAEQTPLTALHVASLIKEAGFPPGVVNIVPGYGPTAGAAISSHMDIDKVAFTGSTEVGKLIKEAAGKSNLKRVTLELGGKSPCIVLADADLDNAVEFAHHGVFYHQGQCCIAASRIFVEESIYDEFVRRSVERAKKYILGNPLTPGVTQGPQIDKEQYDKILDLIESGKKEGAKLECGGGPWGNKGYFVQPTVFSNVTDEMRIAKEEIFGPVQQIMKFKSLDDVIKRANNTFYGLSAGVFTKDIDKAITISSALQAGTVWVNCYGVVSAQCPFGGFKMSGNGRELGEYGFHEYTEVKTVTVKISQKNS

Potency, inconclusive:
CC(C)COc1ccc(C(=O)Nc2scc(-c3ccc(Cl)cc3Cl)c2C(N)=O)cc1 31.6 µM [inhibitor, partial curve]
COc1ccc(OC)c(C(c2nnnn2C2CCCC2)N2CCc3ccccc3C2)c1 (stereo not drawn) 39.8 µM [inhibitor, single point]
O=S(=O)(c1ccc2nc(SCc3ccc(Cl)cc3)[nH]c2c1)N1CCOCC1 8.91 µM [inhibitor, single point]
COc1ccc(NC(=O)N2CC[C@@]3(CCCN(C(C)=O)C3)C2)cc1 39.8 µM [inhibitor, single point]
O=C(NCC1CCCO1)c1ccc2c(=O)n(CCc3ccccc3)c(=O)[nH]c2c1 (stereo not drawn) 5.01 µM [inhibitor, full curve]
CCCS(=O)(=O)Nc1c(C(=O)O)[nH]c2ccccc12 28.2 µM [inhibitor, partial curve]
COc1ccc(C2C(C#N)=C(C)NC3=C2S(=O)(=O)c2ccccc23)cc1 (stereo not drawn) 35.5 µM [inhibitor, partial curve]
CCOc1cc(S(=O)(=O)NCc2ccc(OC)cc2)c(OCC)cc1-n1cnnn1 25.1 µM [inhibitor, partial curve]
O=[N+]([O-])c1ccc(CSc2nnc(-c3cnccn3)o2)cc1 39.8 µM [inhibitor, single point]
COCc1cc(C(C)=O)ccc1OCC(=O)Nc1ccc(NC(C)=O)cc1 39.8 µM [inhibitor, single point]
CC(Sc1ccccc1)C(=O)NN=C1CCCCCC1 (stereo not drawn) 39.8 µM [inhibitor, single point]
COc1ccc(C2=NN(C3=NN=C(N)Cc4ncnn43)C(O)(C(F)(F)F)C2)cc1 (stereo not drawn) 28.2 µM [inhibitor, single point]
COc1ccc(OC)c(NC(=O)c2nc(-c3ccccc3)oc2C)c1 39.8 µM [inhibitor, single point]
CCOC(=O)c1ccc(N2C(=O)C(O)=C(C(C)=O)C2c2ccc(O)c(OC)c2)cc1 (stereo not drawn) 22.4 µM [inhibitor, partial curve]
O=C(c1cc(COc2ccc3ncccc3c2)on1)N1CCCCCC1 39.8 µM [inhibitor, single point]
CCNc1ncc2nc(-c3cccs3)c(=O)n(C[C@H]3CCCO3)c2n1 5.62 µM [inhibitor, full curve]
O=C(C1CC1)N1CCN=C1SCc1cccc(C(F)(F)F)c1 35.5 µM [inhibitor, single point]
O=C(CSc1nc2ccsc2c(=O)n1Cc1ccccc1)NCC1CCCO1 (stereo not drawn) 44.7 µM [inhibitor, single point]
CNc1oc(-c2ccccc2Cl)nc1C#N 31.6 µM [inhibitor, single point]
O=C(N[C@@H](c1ccccc1)[C@@H]1C[C@H]1C(=O)NCc1ccccn1)OCc1ccccc1 39.8 µM [inhibitor, single point]
Cn1cnnc1SCC(=O)N1CCc2ccccc21 39.8 µM [inhibitor, single point]
O=C(NNC(=S)Nc1ccc(F)c(Cl)c1)C1CC1 39.8 µM [inhibitor, single point]
Cc1ccc(S(=O)(=O)CC2CSc3nnc(C)c(=O)n32)cc1 (stereo not drawn) 25.1 µM [inhibitor, single point]
O=C(CSc1ccc(-c2nc3ccccc3[nH]2)cn1)Nc1ccc(S(=O)(=O)NC2CC2)cc1 18.9 µM [inhibitor, partial curve]
CC(=O)O/N=C/c1c(C)c(C=O)n2ccccc12 39.8 µM [inhibitor, single point]
Cc1ccc(-c2cc(C(=O)N3CCCc4ccccc43)no2)cc1 39.8 µM [inhibitor, single point]
Oc1c(C=Nc2cccnc2)sc2ccccc12 39.8 µM [inhibitor, single point]
Cc1csc(NC(=O)c2cc3c(s2)CCCC3)n1 6.31 µM [inhibitor, full curve]
Cc1cc(C)n2cc(CSc3nnnn3-c3ccccc3)nc2n1 28.2 µM [inhibitor, partial curve]
COc1cccc(-c2nnc3sc(C4CCCCC4)nn23)c1 17.8 µM [inhibitor, partial curve]
Cc1ccc(NC(=O)CSc2nnc(COc3ccc(C#N)cc3)n2-c2ccccc2)cc1C 39.8 µM [inhibitor, single point]
COc1ccc(N2CCN(c3oc(-c4ccc(OC)c(OC)c4)nc3C#N)CC2)cc1 12.6 µM [inhibitor, partial curve]
O=C(Nc1ccccc1)O/N=C/c1ccccc1Cl 39.8 µM [inhibitor, single point]
CCC(C)(C)C1CCc2c(sc(NC(=O)c3ccoc3C)c2C(N)=O)C1 (stereo not drawn) 12.6 µM [inhibitor, partial curve]
Cc1cc(NC(=O)CSc2nccn2-c2ccc(Cl)cc2)no1 28.2 µM [inhibitor, single point]
Cn1c(SCC(=O)N/N=C/c2ccc([N+](=O)[O-])s2)nnc1-c1ccc(Cl)cc1 37.7 µM [inhibitor, single point]
CC(=O)NCc1ccc(-c2csc(N)n2)s1 25.1 µM [inhibitor, partial curve, poor fit]
Cc1cc(C)n(-c2cc(N3CCN(C(=O)c4ccc(C(C)(C)C)cc4)CC3)ccc2[N+](=O)[O-])n1 25.1 µM [inhibitor, partial curve]
CC1CCN(S(=O)(=O)c2cccc(-c3cn4cc(Cl)ccc4n3)c2)CC1 44.7 µM [inhibitor, single point]
CC(C)Cn1c(N)c(S(=O)(=O)c2cccs2)c2nc3ccccc3nc21 31.6 µM [inhibitor, partial curve]
COc1ccc(OC)c(-n2cnnn2)c1 25.1 µM [inhibitor, partial curve]
COc1ccc(OC)c(S(=O)(=O)N(C)CC(=O)N2CCN(c3ccc(F)cc3)CC2)c1 39.8 µM [inhibitor, single point]

Potency, inactive:
O=C(CCn1cnc2ccccc2c1=O)Nc1nc2c(s1)CCCC2
CC(C)NC(=O)c1ccccc1NC(=O)Cc1ccc(Br)cc1
O=C(c1cc(C(F)(F)F)cc(C(F)(F)F)c1)N1CCC[C@@]2(CCN(c3ccccc3)C2)C1
O=[N+]([O-])c1cccc(CNC2CCCCCC2)c1
C=C(C)C1CC[C@]2(CO)CC[C@@]3(C)[C@H](CCC4[C@@]5(C)CCC(O)C(C)(C)C5CC[C@@]43C)C12 (stereo partly drawn)
O=C1CC(c2ccco2)CC(O)=C1C=NCCO (stereo not drawn)
CCOC(=O)[C@H](CCc1ccccc1)N[C@@H](C)C(=O)N1[C@H](C(=O)O)C[C@H]2CCCC[C@@H]21
CC(=O)Nc1ccc(N=C(C2=C(O)c3ccccc3C2=O)c2ccccc2)cc1
NC(=O)C1CCN(C(=O)CNC(=O)c2ccccc2)CC1
O=C(Nc1ccncc1)c1ccc(-c2ccccc2)cc1
COCCNC(=O)CCCn1c(=O)c2cc(OC)c(OC)cc2n(CC(=O)c2cccc(OC)c2)c1=O
CCOc1ccc(/C=N/OCC(=O)NCc2ccc3c(c2)OCO3)cc1OC
CCOC(=O)N1CCN(C(=O)c2ccc(-n3c(=S)[nH]c4ccccc4c3=O)cc2)CC1
COc1n[nH]c(C(=O)Nc2cc(F)ccc2C)c1[N+](=O)[O-]
COc1cccc(-c2nc(NCc3cccnc3)c3ccccc3n2)c1
CC(C)NC(=O)NC(=O)COC(=O)c1cccc(OC(F)F)c1
Cc1cc(OC(=O)c2c(F)cc(F)cc2F)nc(C)n1
CCC(C)(C)NC(=O)Cc1ccc(C)cc1
O=C(O)c1cc2c(ccc3ccccc32)o1
CC(C)(C)CN1CCNC(=O)C1CC(=O)NC1Cc2ccccc2C1 (stereo not drawn)
CCCC(=O)Nc1cc(C(=O)O)ccc1Sc1ccccc1

Potency, active:
CC(C)Cn1c(SCC(=O)N2CCc3ccccc3C2)nc2cc(Cl)ccc2c1=O 10 µM
COc1cccc(CN(C(=O)Cn2nnc(-c3ccccc3F)n2)C(C(=O)NC(C)(C)C)c2ccncc2)c1 (stereo not drawn) 23.8 µM
COc1ccc(N2C(=O)CC(N3CCN(c4nc5ccccc5s4)CC3)C2=O)cc1 (stereo not drawn) 25.1 µM
Cc1ccc(-n2ncc3c(=O)n(CC#N)cnc32)cc1C 15.8 µM
COc1ccc(S(=O)(=O)Nc2ccc(Cl)cn2)c(C)c1C 12.6 µM
O=C(NCCC1=CCCCC1)C1CCC(CNS(=O)(=O)c2ccccc2)CC1 (stereo not drawn) 0.562 µM
CCc1c(C)sc(NC(=O)c2cc(-c3ccco3)on2)c1C#N 28.2 µM
CCc1c(C)sc(NC(=O)c2noc(C)c2[N+](=O)[O-])c1C#N 17.8 µM

activity, negative = inhibition, inactive:
C[C@H](NC(=O)N1CCc2nc(-c3ccccc3)c3c(c2C1)CO[C@@H](C)C3)c1ccccc1 0.795% [at 13.5 µM]
NCOC(=O)Cc1ccc(Br)cc1 -3.31% [at 13.5 µM]
